PubChem BioAssay AID1508623 (National Center for Advancing Translational Sciences (NCATS), 2021)
Hit rate of the full screen: of about 48,000 compounds, about 450 (0.94%) were called active. About 19% were inconclusive and are not listed. Calls come from the whole dose curve; as a rule, active = well fitted inhibition curve with a large enough effect; inconclusive = small, poorly fitted or top-dose-only effect; inactive = no such curve, though single readings can be large or run the other way. The list shows a part of the results.

Assay: Primary qHTS for Identification of Small Molecule Inhibitors of Huntingtin Promoter Activity; note: nearly all actives have a fitted effect of over 50% in size
Conditions: HEK293 HTT promoter firefly luciferase reporter (activity 0% = vehicle and -100% = no light), 24 h; series mostly up to 57.5 µM; activity change, negative = inhibition: at the top concentration
In short: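 Quantitative HTS used concentration series of up to 57.5 uM final on HEK293 luciferase reporter cells, 24 h at 37 degrees C. Readout was Dual-Glo firefly luminescence.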
Potency is the fitted concentration of half-maximal effect.

Row | Structure (SMILES) | activity change, negative = inhibition | Potency
1 | CCc1ccc(NC(=O)Cn2c(=O)n(Cc3nc(-c4ccccc4)no3)c(=O)c3cc4c(cc32)OCO4)cc1 | inactive: -3.36% | 
2 | Cc1cccc(C(=O)Nc2ccc(C(=O)OCc3cc(=O)n4nc(C5CC5)sc4n3)cc2)c1 | inactive: -21.1% | 
3 | COc1ccccc1N1CCN(C(=O)CCc2nnc3n(C)c(=O)c4sccc4n23)CC1 | inactive: -7.55% | 
4 | COc1ccc(S(=O)(=O)NCC(c2ccc(N(C)C)cc2)N2CCc3ccccc32)cc1 (stereo unspecified) | inactive: -16.5% | 
5 | COCCNC(=O)CSc1cn(CC(=O)N2CCCCCC2)c2ccccc12 | inactive: -16.9% | 
6 | CSc1ccc(CCNC(=O)Cn2ncc3c(=O)oc4ccccc4c32)cc1 | inactive: -12.7% | 
7 | CCOc1ccc(OCC)c(NC(=O)C2CCN(S(=O)(=O)c3cn(C)cn3)CC2)c1 | inactive: 2.11% | 
8 | Cc1ccc(C)c(CSc2ccc3nnc(CCNS(=O)(=O)c4ccccc4)n3n2)c1 | inactive: -12.4% | 
9 | Cc1ccn2c(Nc3ccc(F)cc3)c(-c3ccccn3)nc2c1 | inactive: 2.08% | 
10 | O=C(Cn1nc(-c2ccccc2)nc(Cc2ccccc2)c1=O)Nc1ccccc1 | inactive: -19.5% | 
11 | CCCCC(=O)OC1=C(C(C)=O)N(Cc2ccccc2)S(=O)(=O)c2ccccc21 | inactive: -24.6% | 
12 | O=C(NCCc1nc2ccccc2n1Cc1ccccc1)c1ccco1 | inactive: -9.1% | 
13 | CCN(CC)CCNC(=O)C1CCN(c2cc(C)nc3c(-c4ccc(Cl)cc4)c(C)nn23)CC1 | inactive: -9.57% | 
14 | Cc1ccc(NS(=O)(=O)c2cnc(N)nc2)c(C)c1 | inactive: 0.249% | 
15 | CCc1nn(CC(=O)Nc2cc(C)cc(C)c2)c(=O)c2cc3sccc3n12 | inactive: -19.4% | 
16 | Cc1nc(-n2nc(C)c(Cc3ccc4c(c3)OCO4)c2C)sc1C(=O)Nc1cccc(Cl)c1 | inactive: -5.2% | 
17 | Cc1ccc(CN2CCCn3nc(C(=O)NCc4ccc(OC(C)C)cc4)cc3C2=O)cc1 |  | active: 17.8 µM
18 | CSc1cccc(NC(=O)CC(c2cccs2)N2Cc3ccccc3C2=O)c1 (stereo unspecified) | inactive: -28.4% | 
19 | COc1cc(-c2noc(CN3CCN(c4cccc(Cl)c4)CC3)n2)cc(OC)c1OC | inactive: -20.8% | 
20 | Cc1ccc(NC(=O)CSc2n[nH]c(-c3ccc(F)cc3)n2)cc1F | inactive: -8.33% | 
21 | O=Cc1ccccc1C=O | inactive: 3.92% | 
22 | COc1ccc2nc(NC(=O)c3nc(S(=O)(=O)Cc4ccccc4)ncc3Cl)sc2c1 | inactive: -29.5% | 
23 | CSc1ccc(CCNC(=O)CCc2c(C)nc3c(c(C)nn3-c3ccc(C)c(C)c3)c2C)cc1 | inactive: 8.6% | 
24 | CCOC(=O)c1cccc(NC(=O)c2ccc3nc(C(C)C)oc3c2)c1 | inactive: -23.1% | 

Row | Structure (SMILES) | activity change, negative = inhibition | Potency
25 | O=C(Nc1cccc(Cl)c1Cl)c1cc2nc(-c3ccc(Cl)cc3)cc(C(F)(F)F)n2n1 | inactive: -12.6% [at 11.5 µM] | 
26 | CCC(C(=O)Nc1nnc2n1CCS2)c1ccccc1 (stereo unspecified) | inactive: -7.79% | 
27 | COc1ccc(Cn2c(=O)n(-c3ccccc3C)c(=O)c3c4c(sc32)CN(C(C)=O)CC4)cc1 | inactive: -23% | 
28 | CCCN(CCC)CCNC(=O)c1cc2c(-c3ccc(Cl)cc3)nn(C)c2s1 | inactive: -18% | 
29 | COc1ccc(NC(=O)N2CCc3c(sc4c3CCCC4)C2c2ccccc2OC)cc1 (stereo unspecified) | inactive: -6.04% | 
30 | CC(C)CC(=O)Nc1ccc2nc(SCC(=O)N3CCCC3)sc2c1 | inactive: 3.68% | 
31 | Cc1ccc(NC(=O)CCn2nc(C)c(S(=O)(=O)N3CCCCC3)c2C)cc1Cl | inactive: -31.8% | 
32 | CCOc1ccc(N(CC(=O)Nc2cc(C)ccc2C)S(=O)(=O)c2c(C)[nH]c(=O)[nH]c2=O)cc1 | inactive: -15.5% [at 11.5 µM] | 
33 | CCOC(=O)c1c(C)sc(-c2c(-c3cc(C)ccc3C)[nH]c3c2c(=O)n(C)c(=O)n3C)c1O | inactive: -13.7% | 
34 | CCN(c1ccc(C)cc1)S(=O)(=O)c1nnc(NC(=O)C2CCCCC2)s1 | inactive: 9.59% | 
35 | Cc1ccc(C)c(CN2C(=O)c3ccccc3S(=O)(=O)c3ccc(C(=O)N4CCc5ccccc54)cc32)c1 | inactive: -13.7% | 
36 | CCCNC(=O)CSc1nc2ccccc2nc1Cc1ccc(Cl)cc1 | inactive: -8.12% | 
37 | CCn1c(CNC(=O)c2ccc(OC)cc2)nnc1SCC(=O)Nc1ccccc1 | inactive: -6.46% | 
38 | COC(=O)c1ccc(NC(=O)CCc2c(C)nc3c(-c4ccccc4)c(C)nn3c2C)cc1 | inactive: -27.2% | 
39 | COc1ccc(-n2c(C)c(C(C)=O)c3cc(OC(=O)c4ccc(C)cc4)ccc32)cc1 | inactive: -1.66% | 
40 | CCOC(=O)c1ccc(OCC2c3cc(OC)c(OC)cc3CCN2C(=O)c2ccc(S(=O)(=O)N3CCCC3)cc2)cc1 (stereo unspecified) | inactive: -14.3% | 
41 | Cc1ccc(CCNC(=O)c2cn(C)c3ccc(S(=O)(=O)N(C)C4CCCCC4)cc3c2=O)cc1 | inactive: 1.45% | 
42 | Cc1ccc(Cn2cc(C(=O)c3ccc(F)cc3)c(=O)c3cc4c(cc32)OCO4)cc1 | inactive: -24% | 
43 | COc1ccc(CNS(=O)(=O)c2cc3c(cc2C)N(C)CCO3)cc1 | inactive: -26.9% | 
44 | CCOC(=O)Cn1c(=O)n(CC2CCCO2)c2nc(-c3ccccc3F)nc(C(N)=O)c21 (stereo unspecified) | inactive: -15% | 
45 | Cc1cccc(NC(=O)c2cc(S(=O)(=O)NCc3ccc4c(c3)OCO4)ccc2F)c1C | inactive: -29.3% | 
46 | COc1ccccc1-n1c(=O)c2c3c(sc2n(C)c1=O)CN(C(C)=O)CC3 | inactive: -1.68% | 
47 | CCOC(=O)Cc1ccc(NC(=O)Nc2ccccc2OCc2cc(=O)n3ccccc3n2)cc1 | inactive: 7.5% | 
48 | CCn1nnc2cc(C(=O)Nc3cccc(Cl)c3C)ccc21 | inactive: 17.8% | 

Row | Structure (SMILES) | activity change, negative = inhibition | Potency
49 | COc1ccc(Cn2c(CNS(=O)(=O)c3ccc(C)c(C)c3)nc3cccnc32)cc1 | inactive: 0.64% | 
50 | COc1ccc(-c2nc3scc(CCNS(=O)(=O)c4ccccc4F)n3n2)cc1 | inactive: -24.3% | 
51 | CCN1CCN(c2ncnc3c2cnn3-c2ccc(C)c(Cl)c2)CC1 | inactive: 29% | 
52 | COc1ccc(-c2noc(-c3ccc(N4CCCC4)c([N+](=O)[O-])c3)n2)cc1 | inactive: -20.8% | 
53 | O=C(CCS(=O)(=O)c1nc(-c2ccc3c(c2)OCO3)cc(C(F)(F)F)n1)Nc1ccccc1F | inactive: 5.67% | 
54 | CCN(C(=O)CCn1cnc2onc(-c3ccc(F)cc3)c2c1=O)c1ccc(OC)cc1 | inactive: -19.2% | 
55 | COc1ccc(Nc2nc3ccccc3c3nnc(C)n23)cc1Cl | inactive: 2.25% | 
56 | CCc1cccc(-n2nnc(-c3nc(-c4ccccc4Cl)no3)c2N)c1 | inactive: 0.65% | 
57 | Cc1ccc(NC(=O)CSc2cn(CC(=O)N3CCCCCC3)c3ccccc23)cc1 | inactive: -22% | 
58 | CCCCCCCCCCCCCCCCCCOCC(O)CO (stereo unspecified) | inactive: 17% | 
59 | Cc1cccc(N2CCN(C(=O)c3cnn(-c4cccc(Cl)c4C)c3C3CCNCC3)CC2)c1C | inactive: -13.1% | 
60 | CN1Cc2cc(C(=O)N3CCC(C4CCNCC4)CC3)ccc2NC(CC(=O)O)C1=O (stereo unspecified) | inactive: 0.326% | 
61 | Cn1nnc2c(NCCc3ccccc3)ncnc21 | inactive: -9% | 
62 | CC(C)c1ccc(NC(=O)c2cccc3c2C(=O)N(C2CCCCC2)C3)cc1 | inactive: -16.9% | 
63 | CCCc1nc2ccccc2n2c(-c3ccc(C)cc3)c3c(=O)n(C)c(=O)n(C)c3c12 | inactive: -5.24% [at 11.5 µM] | 
64 | Cc1ccc2c(c1)N(CC(=O)NCc1ccccc1Br)C(=O)c1cccnc1O2 | inactive: -2.38% | 
65 | CCOCCCNC(=O)C(c1ccc(C)cc1)N(Cc1cccs1)C(=O)c1ccc(NC(C)=O)cc1 (stereo unspecified) | inactive: -13% | 
66 | C[N+]1(C)CCC(OC(=O)C(O)(c2ccccc2)C2CCCC2)C1 (stereo unspecified) | inactive: -3.9% | 
67 | C[N+](C)(CCOc1ccccc1)Cc1cccs1 | inactive: 5% | 
68 | COc1ccccc1NC(=O)c1c(NC(=O)c2ccco2)sc2c1CCC(C(C)(C)C)C2 (stereo unspecified) | inactive: -9.32% | 
69 | CCSc1ncc(Cl)c(C(=O)Nc2c(C(=O)c3ccc(C)c(F)c3)oc3ccccc23)n1 | inactive: 1.11% | 
70 | COc1ccc(N2CC(NC(=O)c3cc4ccccc4o3)CC2=O)cc1OC (stereo unspecified) | inactive: -20.1% | 
71 | COc1cc(/C=C(\C#N)C(=O)Nc2ccc(C)cc2)ccc1OCc1cc(=O)n2nc(C)sc2n1 | inactive: -4.69% | 
72 | Cc1ccc(NC(=O)Cn2c(=O)n(CCc3ccccc3)c(=O)c3c4c(sc32)CCCC4)c(C)c1 | inactive: 1.08% | 

Row | Structure (SMILES) | activity change, negative = inhibition | Potency
73 | O=c1oc2ccc(Br)cc2cc1-c1csc(-c2ccccc2)n1 | inactive: 8.3% | 
74 | CCOC(=O)c1cc(NC(=O)c2ccc(C)cc2)c(=O)n2c1oc1ccc(Cl)cc12 | inactive: -11.6% | 
75 | COC(=O)c1ccc(NC(=O)c2cc(=O)c3ccc(C)cc3o2)cc1 | inactive: 1.58% [at 11.5 µM] | 
76 | C=C1C[C@@]2(O)O[C@@]3(C[C@H]2C(C)C)[C@H](C)CC[C@H]13 | inactive: -1.68% | 
77 | CN(C(=O)C1=CC(c2ccc3c(c2)OCO3)=NS(=O)(=O)N1C)c1ccccc1 | inactive: -15.6% | 
78 | O=C(CSc1nc2c(c(=O)[nH]1)CN(Cc1ccc3c(c1)OCO3)CC2)Nc1cccc(Cl)c1 | inactive: -26.8% | 
79 | CCCC(=O)Nc1nnc2n1CCS2 | inactive: 6.43% | 
80 | Cc1nc2c(c(C)nn2-c2ccccc2)c(C)c1CCC(=O)NCCc1ccccc1 | inactive: -1.49% | 
81 | Cn1nnc2c(NCc3ccccc3Cl)ncnc21 | inactive: -3.19% | 
82 | CCOC(=O)c1noc2ncnc(N3CCC(C)CC3)c12 | inactive: -21.5% | 
83 | CCOc1ccc(Oc2nc(NC)nc(N3CCOCC3)n2)nn1 | inactive: 16.9% | 
84 | COc1ccc(CC(=O)NCc2nc3cccnc3n2Cc2ccc(C)cc2)cc1OC | inactive: -13.8% | 
85 | Cc1cccc(Cn2cc3c(=O)n(CC(=O)Nc4ccc(C)c(F)c4)nc-3c3cc(F)ccc32)c1 | inactive: -3.78% | 
86 | Cc1ccc(Cn2c(=O)n(CCCC(=O)NCc3ccccc3Cl)c(=O)c3ccccc32)cc1 | inactive: -5.08% | 
87 | COc1ccc(OC)c(NC(=O)c2c(NCc3cccs3)sc3c2CCCC3)c1 | inactive: -22.6% | 
88 | COC(=O)c1cnc(N2CCN(c3ccccc3F)CC2)c2ccccc12 | inactive: 3.4% | 
89 | Cc1ccc(NC(=O)C2CCN(c3nc4ccccc4[nH]3)CC2)c(C)c1 | inactive: 6.9% | 
90 | CCc1ccccc1NC(=O)c1cc(S(=O)(=O)N2CCCC2)cn1C | inactive: -2.99% | 
91 | Cc1cccc(N2CCN(C(=O)CCc3c(C)nc4ncnn4c3C)CC2)c1C | inactive: -26.7% | 
92 | COc1ccccc1NC(=O)NCCN1CCN(c2cccc(Cl)c2)CC1 | inactive: -10.7% | 
93 | CC(C)c1cccc(C(C)C)c1NC1=NS(=O)(=O)c2ccccc21 | inactive: -24.4% | 
94 | COc1ccc(OC)c(NC(=O)CN2C(=O)COc3ccc(S(=O)(=O)NC4CCCC4)cc32)c1 | inactive: -21% | 
95 | CN(CC(=O)Nc1cccc(C(F)(F)F)c1)S(=O)(=O)c1cccs1 | inactive: -10.5% | 
96 | CCOc1ccc(S(=O)(=O)Nc2ccc3c(c2)N(C(C)=O)CCC3)cc1 | inactive: -24.4% | 
